From article PMC4336329 (PLoS ONE, 2015)
About 14,000 (4.5%) of roughly 310,000 compounds showed an effect of 50% or more. The effect is printed as a negative number. This is one part of the list.

These molecules were tested against human ether-à-go-go-related gene (hERG) potassium channel (human, UniProt Q12809) (assay: primary screen, population patch clamp on CHO cells stably expressing hERG).
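Also: peak tail current of the secondary pulse compared with the same well before compound.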

Sequence of human ether-à-go-go-related gene (hERG) potassium channel (Q12809 whole entry, looked up): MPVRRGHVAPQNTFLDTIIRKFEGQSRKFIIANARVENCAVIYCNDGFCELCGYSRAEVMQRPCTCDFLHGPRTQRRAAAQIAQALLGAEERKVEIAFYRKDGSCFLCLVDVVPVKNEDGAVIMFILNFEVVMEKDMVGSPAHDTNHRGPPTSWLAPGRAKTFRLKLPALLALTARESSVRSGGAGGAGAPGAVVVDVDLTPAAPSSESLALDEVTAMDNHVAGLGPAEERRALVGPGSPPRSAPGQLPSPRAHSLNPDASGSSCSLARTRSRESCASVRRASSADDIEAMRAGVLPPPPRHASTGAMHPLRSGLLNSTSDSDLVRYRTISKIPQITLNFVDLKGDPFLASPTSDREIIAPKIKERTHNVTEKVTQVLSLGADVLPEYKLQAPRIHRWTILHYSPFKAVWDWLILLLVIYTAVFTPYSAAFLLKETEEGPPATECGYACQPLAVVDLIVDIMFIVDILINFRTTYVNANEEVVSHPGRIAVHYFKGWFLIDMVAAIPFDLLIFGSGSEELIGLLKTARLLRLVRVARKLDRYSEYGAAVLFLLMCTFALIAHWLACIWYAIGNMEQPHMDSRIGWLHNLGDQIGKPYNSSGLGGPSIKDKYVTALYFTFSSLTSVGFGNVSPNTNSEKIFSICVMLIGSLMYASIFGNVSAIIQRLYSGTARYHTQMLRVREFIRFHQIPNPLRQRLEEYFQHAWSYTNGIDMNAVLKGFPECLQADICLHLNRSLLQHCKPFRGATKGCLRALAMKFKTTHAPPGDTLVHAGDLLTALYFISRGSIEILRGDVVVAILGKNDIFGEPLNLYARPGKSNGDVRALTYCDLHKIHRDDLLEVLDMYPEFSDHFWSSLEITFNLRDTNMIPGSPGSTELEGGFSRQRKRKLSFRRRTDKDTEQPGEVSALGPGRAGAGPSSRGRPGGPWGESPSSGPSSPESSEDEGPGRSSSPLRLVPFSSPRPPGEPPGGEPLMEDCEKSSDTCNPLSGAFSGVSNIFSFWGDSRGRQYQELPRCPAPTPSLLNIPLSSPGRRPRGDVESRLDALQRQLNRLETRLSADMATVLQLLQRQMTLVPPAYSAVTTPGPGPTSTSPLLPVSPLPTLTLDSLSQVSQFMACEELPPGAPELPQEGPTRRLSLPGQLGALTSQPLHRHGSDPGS

Structure (SMILES)	hERG current change (%, negative = inhibition) at 10uM
COC(=O)c1cn(-c2ccccc2)nc1-c1ccc(OC)cc1	15.1%
Cc1cccc(C)c1NC(=O)CNC(=O)c1ccncc1	8.24%
CN(C)CCN(C(=O)c1ccccc1Cl)c1nc2c(Cl)cccc2s1.Cl	-34.1%
CCOC(=O)N1CCC(Nc2ccc3nnc(-c4ccccc4)n3n2)CC1	-82%
CCOc1ccc(N2C(=O)NC(Cc3c[nH]c4ccccc34)C2=O)cc1 (stereo not shown)	-4.47%
Cc1ccnc(NC(=O)c2ccc(N3C(=O)CCC3=O)cc2)c1	5.53%
O=C(CSc1nc2cc(S(=O)(=O)N3CCOCC3)ccc2o1)NC1CCCc2ccccc21 (stereo not shown)	-4.26%
COc1ccc(CNC(=O)CS(=O)CC(=O)O)cc1OC (stereo not shown)	12.9%
CC(=O)Oc1ccc(N2C(=O)C3C(C2=O)C2C=CC3C23CC3)cc1[N+](=O)[O-] (stereo not shown)	17.5%
CCc1cccc(NS(=O)(=O)c2ccc3c(c2)CCC(=O)N3)c1	-11.1%
CCOc1cc(C(=O)OC(C)C(=O)Nc2ccc(S(N)(=O)=O)cc2)ccc1OCC(=O)N1CCOCC1 (stereo not shown)	-5.65%
O=c1[nH]cnc2sc(-c3ccccc3)cc12	-1.05%
Cc1ccc(-c2c(NC(=O)C(C)C)n(C)c3ccccc3c2=O)cc1	7.05%
COc1cccc(CC(=O)Nn2c(C)nc3ccccc3c2=O)c1	-12.9%
COC(=O)c1cccc(S(=O)(=O)N2CCC(NC(=O)Nc3cccc(F)c3)CC2)c1	-5.11%
O=C1c2ccccc2S(=O)(=O)c2cc(C(=O)N3CCC(N4CCCC4)CC3)ccc21	-12.5%
O=C(N/N=C/c1cc([N+](=O)[O-])ccc1O)NC12CC3CC(CC(C3)C1)C2	0.588%
CCOC(=O)c1cc[nH]c1CC(=O)NC	6.13%
COc1cccc(NC(=O)CN(C)C(=O)c2ccc(N3CCOCC3)c([N+](=O)[O-])c2)c1	-37.6%
CC(=O)Nc1ccc(NC(=O)c2c(C)nc3ccccn23)cc1	15.1%

Structure (SMILES)	hERG current change (%, negative = inhibition) at 10uM
Cc1ccc(N2N=C(c3ccc(F)cc3)CC2c2ccco2)cc1 (stereo not shown)	34.1%
Cc1c(NS(=O)(=O)c2cc(C(=O)OCC(=O)N3CCC(C)CC3)ccc2Cl)c(=O)n(-c2ccccc2)n1C	-1.58%
O=C(N/N=C/c1ccccn1)c1ccc(NC(=O)c2ccc(F)cc2)cc1	-16.6%
O=C(NCCC1CC1(Cl)Cl)Nc1ccccc1 (stereo not shown)	-1.02%
Cc1ccc2cccnc2c1NC(=S)NC(=O)c1ccccc1	17%
COc1ccc(NC(=S)NCCC2=CCCCC2)cc1OC	23.9%
CS(=O)(=O)c1cccc(C(=O)NCc2ccc(F)cc2)c1	0.5%
O=C(COc1ccccc1)NCC1CCCO1 (stereo not shown)	9.35%
O=C(Cc1cccs1)NCc1cccc(C(F)(F)F)c1	7.33%
Cc1cccc(C(=O)NC(=S)N2CCN(C(=S)NC(=O)c3cccc(C)c3)CC2)c1	-0.873%
Cc1cc(=O)oc2cc(N)ccc12	-9.36%
N#C/C(=C\c1cccs1)C(=O)NCc1cccnc1	-17.4%
Cc1cccc(-n2c(Cc3ccccc3)nnc2SCC(=O)N2CCOCC2)c1	-1.12%
CCOc1ccc(OCC(=O)N2CCC3(CC2)CC(=O)c2ccccc2O3)cc1	-94.6%
COc1ccc(OC)c(NC(=O)C(CC(C)C)NC(=O)C2CCCCC2)c1 (stereo not shown)	-11.3%
Cl.O=C(NCC(c1cccs1)N1CCOCC1)c1ccccc1NS(=O)(=O)c1cc([N+](=O)[O-])ccc1Cl (stereo not shown)	-8.83%
CCc1sc(C(=O)NC2CCN(C)CC2)cc1Br	-7.34%
Cc1cnc(=O)[nH]c1SCC(=O)c1ccc(F)cc1	12.1%
O=C(NCCNc1ccc([N+](=O)[O-])cc1C(F)(F)F)c1ccccc1F	-33.9%
CC(=O)N1CCN(CCN2C(C)=CC(=C(C#N)C#N)C=C2C)CC1	-3.8%

Structure (SMILES)	hERG current change (%, negative = inhibition) at 10uM
Cn1c(SCC(=O)Nc2ccc(F)cc2)nnc1C1CC1	4.27%
CSc1ncccc1C(=O)NCCc1ccc(Cl)cc1	2.23%
Cc1nnc(SCC(=O)N(C)C2CCCCC2)n1C	-1.56%
CCOC(=O)C1(Cc2ccccc2C(F)(F)F)CCN(C2CCSC2)CC1 (stereo not shown)	-25.2%
CC(=O)c1c(C)[nH]c(C(=O)NCc2ccccc2)c1C	-3.31%
CC1CC(Nc2ccccc2N)=CC(=O)O1 (stereo not shown)	11.7%
O=C(Cc1c(F)cccc1Cl)NCCN1CCOCC1	13%
CCC(C)NC(=O)C(Sc1ccccc1)c1ccccc1 (stereo not shown)	13.6%
Cc1cccc(NC(=O)CS(=O)(=O)c2cn(CC(=O)N3CCOCC3)c3ccccc23)c1	-0.24%
CCCCC(=O)Nc1ccc(Br)cc1C(=O)O	9.15%
COc1ccc(N(CCC#N)S(=O)(=O)c2ccc(Cl)cc2)cc1	-4.21%
CC(C)C(CO)N1CCN(Cc2ccccc2)CCC1=O (stereo not shown)	4.74%
CC1(C2CC2)NC(=O)N(CC(=O)N2CCN(c3ccccc3)CC2)C1=O (stereo not shown)	1.38%
COc1ccc(S(=O)(=O)N2CCCCCC2)cc1C(=O)N(C)Cc1ccco1	-24.4%
CCC(=NCc1ccco1)c1c(O)n(C2CCCCC2)c(=O)[nH]c1=O	-17.3%
COc1ccc(-c2nn(CCC#N)cc2C(=O)Nc2cccc(C(=O)O)c2)cc1[N+](=O)[O-]	13.6%
CCN1C(=O)C(=O)N(CC(=O)Nc2cc(C)ccc2C)C1=O	-6%
O=S(=O)(N/N=C\c1ccc2c(c1)OCO2)c1ccc(Cl)cc1	-7.94%
